# Experimental data as given in the supplement of paper PMC8728848.
# The other results are listed elsewhere or left out.
# B1: Pwp5 ND (Candida glabrata) (protein)
# chain: MGSSHHHHHHSSGLVPRGSHMASANPVPLTNVCYFPEEYPRQAGFRAITAGLASTILQGSVDELLNYSGLSSLTTQQTTTTTPNFQLPTLPLPTNVYGLTVVPLYLLVQLQGYFVPPVSGQYTFSLENTNDAAIIFFGNPSAFPCGDLSAWPQASADDITVTDGTFPSRTLFLKAGVAYPMRISYYNSLGSGNLAVSFTDPGGTKRTNWNGYIWRYNSCSTCTYT
# How the values were obtained:
# Experiment in all cases: glycan array binding signal (z-score within array); higher = stronger binding
# Settings in all cases: glycan notation: IUPAC condensed, linker removed
# Gal(a1-3)Gal(b1-3)GlcNAc = molecular target: Gal(a1-3)Gal(b1-3)GlcNAc
# Method in brief: (§1)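 Negative Z-scores can be read as non-binding. The Z-score is calculated within each array and then averaged across arrays of one protein sequence at different concentrations or buffers and across linkers. Arrays, 3228 in all, were curated from the Consortium for Functional Glycomics database and kept only where the protein sequence was available.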
# [1] = molecular target: Gal(a1-3)Gal(b1-3)GlcNAc(b1-2)Man
# Method in brief: as §1
# [2] = molecular target: Gal(a1-3)Gal(b1-3)GlcNAc(b1-2)Man(a1-3)[Gal(a1-3)Gal(b1-3)GlcNAc(b1-2)Man(a1-6)]Man(b1-4)GlcNAc(b1-4)GlcNAc
# Method in brief: as §1
# [3] = molecular target: Gal(a1-3)Gal(b1-3)GlcNAc(b1-3)GalNAc
# Method in brief: as §1
# [4] = molecular target: Gal(a1-3)Gal(b1-3)GlcNAc(b1-6)GalNAc
# Method in brief: as §1
# [5] = molecular target: Gal(a1-3)Gal(b1-3)[Fuc(a1-4)]GlcNAc(b1-2)Man(a1-3)[Gal(a1-3)Gal(b1-3)[Fuc(a1-4)]GlcNAc(b1-2)Man(a1-6)]Man(b1-4)GlcNAc(b1-4)GlcNAc
# Method in brief: as §1
# Gal(a1-3)Gal(b1-4)Glc = molecular target: Gal(a1-3)Gal(b1-4)Glc
# Method in brief: as §1
# Gal(a1-3)Gal(b1-4)GlcNAc = molecular target: Gal(a1-3)Gal(b1-4)GlcNAc
# Method in brief: as §1
# [6] = molecular target: Gal(a1-3)Gal(b1-4)GlcNAc(b1-2)Man
# Method in brief: as §1
# [7] = molecular target: Gal(a1-3)Gal(b1-4)GlcNAc(b1-2)Man(a1-3)[Gal(a1-3)Gal(b1-4)GlcNAc(b1-2)Man(a1-6)]Man(b1-4)GlcNAc(b1-4)GlcNAc
# Method in brief: as §1
# [8] = molecular target: Gal(a1-3)Gal(b1-4)GlcNAc(b1-3)GalNAc
# Method in brief: as §1
# [9] = molecular target: Gal(a1-3)Gal(b1-4)GlcNAc(b1-6)GalNAc
# Method in brief: as §1
# [10] = molecular target: Gal(a1-3)Gal(b1-4)[Fuc(a1-3)]GlcNAc
# Method in brief: as §1
# [11] = molecular target: Gal(a1-3)Gal(b1-4)[Fuc(a1-3)]GlcNAc(b1-2)Man(a1-3)[Gal(a1-3)Gal(b1-4)[Fuc(a1-3)]GlcNAc(b1-2)Man(a1-6)]Man(b1-4)GlcNAc(b1-4)GlcNAc
# Method in brief: as §1
# Gal(a1-3)GalNAc = molecular target: Gal(a1-3)GalNAc
# Method in brief: as §1
# [12] = molecular target: Gal(a1-3)[Gal(a1-4)]Gal(b1-4)GlcNAc
# Method in brief: as §1
# [13] = molecular target: Gal(a1-4)Gal(b1-3)GlcNAc(b1-2)Man(a1-3)[Gal(a1-4)Gal(b1-3)GlcNAc(b1-2)Man(a1-6)]Man(b1-4)GlcNAc(b1-4)GlcNAc
# Method in brief: as §1
# Gal(a1-4)Gal(b1-4)Glc = molecular target: Gal(a1-4)Gal(b1-4)Glc
# Method in brief: as §1
# Gal(a1-4)Gal(b1-4)GlcNAc = molecular target: Gal(a1-4)Gal(b1-4)GlcNAc
# Method in brief: as §1
# [14] = molecular target: Gal(a1-4)Gal(b1-4)GlcNAc(b1-2)Man(a1-3)[Gal(a1-4)Gal(b1-4)GlcNAc(b1-2)Man(a1-6)]Man(b1-4)GlcNAc(b1-4)GlcNAc
# Method in brief: as §1
# [15] = molecular target: Gal(a1-4)Gal(b1-4)GlcNAc(b1-3)Gal(b1-4)Glc
# Method in brief: as §1
# Gal(a1-4)GlcNAc = molecular target: Gal(a1-4)GlcNAc
# Method in brief: as §1
# Gal(a1-6)Glc = molecular target: Gal(a1-6)Glc
# Method in brief: as §1
# Gal(b1-2)Gal = molecular target: Gal(b1-2)Gal
# Method in brief: as §1
# Gal(b1-3)Gal = molecular target: Gal(b1-3)Gal
# Method in brief: as §1
# Gal(b1-3)Gal(b1-4)GlcNAc = molecular target: Gal(b1-3)Gal(b1-4)GlcNAc
# Method in brief: as §1
# Gal(b1-3)GalNAc = molecular target: Gal(b1-3)GalNAc
# Method in brief: as §1
# [16] = molecular target: Gal(b1-3)GalNAc(a1-3)[Fuc(a1-2)]Gal(b1-4)Glc
# Method in brief: as §1
# [17] = molecular target: Gal(b1-3)GalNAc(a1-3)[Fuc(a1-2)]Gal(b1-4)GlcNAc
# Method in brief: as §1
# Gal(b1-3)GalNAc(b1-3)Gal = molecular target: Gal(b1-3)GalNAc(b1-3)Gal
# Method in brief: as §1
# [18] = molecular target: Gal(b1-3)GalNAc(b1-3)Gal(a1-4)Gal(b1-4)Glc
# Method in brief: as §1
# [19] = molecular target: Gal(b1-3)GalNAc(b1-4)Gal(b1-4)Glc
# Method in brief: as §1
# [20] = molecular target: Gal(b1-3)GalNAc(b1-4)[Neu5Ac(a2-3)]Gal(b1-4)Glc
# Method in brief: as §1
# Gal(b1-3)GlcNAc = molecular target: Gal(b1-3)GlcNAc
# Method in brief: as §1
# [21] = molecular target: Gal(b1-3)GlcNAc(a1-3)Gal(b1-4)GlcNAc
# Method in brief: as §1
# [22] = molecular target: Gal(b1-3)GlcNAc(a1-6)Gal(b1-4)GlcNAc
# Method in brief: as §1
# Gal(b1-3)GlcNAc(b1-2)Man = molecular target: Gal(b1-3)GlcNAc(b1-2)Man
# Method in brief: as §1
# [23] = molecular target: Gal(b1-3)GlcNAc(b1-2)Man(a1-3)[Gal(b1-3)GlcNAc(b1-2)Man(a1-6)]Man(b1-4)GlcNAc(b1-4)GlcNAc
# Method in brief: as §1
binder,measurement,setting,value
B1,glycan array binding signal (z-score),Gal(a1-3)Gal(b1-3)GlcNAc,-0.313
same,glycan array binding signal (z-score),[1],-0.505
same,glycan array binding signal (z-score),[2],-0.224
same,glycan array binding signal (z-score),[3],-0.234
same,glycan array binding signal (z-score),[4],-0.579
same,glycan array binding signal (z-score),[5],0.472
same,glycan array binding signal (z-score),Gal(a1-3)Gal(b1-4)Glc,-0.561
same,glycan array binding signal (z-score),Gal(a1-3)Gal(b1-4)GlcNAc,-0.547
same,glycan array binding signal (z-score),[6],-0.129
same,glycan array binding signal (z-score),[7],0.491
same,glycan array binding signal (z-score),[8],-0.575
same,glycan array binding signal (z-score),[9],-0.36
same,glycan array binding signal (z-score),[10],-0.221
same,glycan array binding signal (z-score),[11],0.326
same,glycan array binding signal (z-score),Gal(a1-3)GalNAc,-0.251
same,glycan array binding signal (z-score),[12],0.526
same,glycan array binding signal (z-score),[13],-0.403
same,glycan array binding signal (z-score),Gal(a1-4)Gal(b1-4)Glc,-0.428
same,glycan array binding signal (z-score),Gal(a1-4)Gal(b1-4)GlcNAc,-0.334
same,glycan array binding signal (z-score),[14],0.073
same,glycan array binding signal (z-score),[15],0.466
same,glycan array binding signal (z-score),Gal(a1-4)GlcNAc,-0.422
same,glycan array binding signal (z-score),Gal(a1-6)Glc,-0.324
same,glycan array binding signal (z-score),Gal(b1-2)Gal,-0.535
same,glycan array binding signal (z-score),Gal(b1-3)Gal,-0.425
same,glycan array binding signal (z-score),Gal(b1-3)Gal(b1-4)GlcNAc,-0.337
same,glycan array binding signal (z-score),Gal(b1-3)GalNAc,-0.212
same,glycan array binding signal (z-score),[16],-0.375
same,glycan array binding signal (z-score),[17],-0.604
same,glycan array binding signal (z-score),Gal(b1-3)GalNAc(b1-3)Gal,-0.575
same,glycan array binding signal (z-score),[18],3.41
same,glycan array binding signal (z-score),[19],0.818
same,glycan array binding signal (z-score),[20],-0.51
same,glycan array binding signal (z-score),Gal(b1-3)GlcNAc,-0.574
same,glycan array binding signal (z-score),[21],-0.125
same,glycan array binding signal (z-score),[22],0.15
same,glycan array binding signal (z-score),Gal(b1-3)GlcNAc(b1-2)Man,-0.011
same,glycan array binding signal (z-score),[23],0.069
